According to PubChem BioAssay AID624296 (National Center for Advancing Translational Sciences (NCATS), 2012):
In all, about 350,000 compounds went through this assay and about 9,900 (2.8%) were called active. This list was built around the results that the source calls inconclusive (neither active nor inactive); the mix of calls is not that of the screen. Calls come from the whole dose curve; as a rule, active = well fitted activation curve with a large enough effect; inconclusive = small, poorly fitted or top-dose-only effect; inactive = no such curve, though single readings can be large or run the other way. No potency is given beside an inconclusive call; the fits are too rough.
Potency is the fitted concentration of half-maximal effect; tags give direction and shape of the fitted curve.

Assay: A quantitative high throughput screen for small molecules that induce DNA re-replication in MCF 10a normal breast cells. For activity, positive = re-replication: % of control where 0% means no effect. Note: nearly all actives have a fitted effect of over 50% in size.
Conditions: MCF 10A DNA re-replication, Hoechst nuclear intensity, 48 h; activity, positive = re-replication: at 46.1 µM (top of the series)
With `CCCC(c1nnnn1CS(=O)(=O)c1ccc(C)cc1)N1CCN(c2ccc(F)cc2)CC1` (configuration not stated) the Potency was inconclusive [activator, partial curve, poor fit].
In the case of `CC1=Nc2ccccc2/C1=C\c1nc(-c2ccccc2)oc1O`, the “activity, positive = re-replication” value is reported as inactive: 1.95%.
For `O=C(Cn1cnc2c(oc3ccccc32)c1=O)N1CCCc2ccccc21`, the “activity, positive = re-replication” value was inactive: -1.55%.
In the case of `COc1ccc(-n2cnnc2SCC(=O)N(C)C2CCS(=O)(=O)C2)cc1` (configuration not stated), the “activity, positive = re-replication” value is reported as inactive: -1.47%.
For `COc1cccc(C2=NN(C(=O)c3ccc(C)o3)C(O)(C(F)(F)F)C2)c1` (configuration not stated), the Potency was inconclusive [activator, single point].
In the case of `O=C(NC1CCCc2c1cnn2-c1ccccc1F)c1ccccn1` (configuration not stated), the “activity, positive = re-replication” value is reported as inactive: -2.78%.
For `COc1cccc(CN2CCN(C(=S)NCc3ccc(Cl)cc3)CC2)c1`, the Potency was inconclusive [activator, single point].
In the case of `CCCc1cc(C(=O)Nc2cc(C)ccc2O)no1`, the “activity, positive = re-replication” value is reported as inactive: 5.85%.
In the case of `Cc1c(C(=O)N2CCc3ccccc3C2)oc2ccccc12`, the Potency is reported as inconclusive [activator, single point].
With `Cc1c(N)c(C(C)(C)C)cc(C(C)(C)C)c1[N+](=O)[O-]` the Potency was active: 18.4 µM.
For `COc1cc(NC(=O)c2cc3ccccc3cc2OC)ccc1NC(=O)c1cccs1`, the Potency was inconclusive [activator, partial curve, poor fit].
With `COc1cc(CNc2ccc(N3CCOCC3)cc2)cc(Br)c1OC` the “activity, positive = re-replication” value was inactive: 13%.
With `CCCCCCC1CC(C)(C(=O)CNc2nncs2)OC1=O` (configuration not stated) the “activity, positive = re-replication” value was inactive: -1.08%.
In the case of `COc1ccc(N/N=C2/CCCCC2=O)cc1`, the Potency is reported as inconclusive [activator, single point].
With `Cc1ccc(-c2cc(C(=O)Nc3ccc(S(=O)(=O)Nc4cc(C)on4)cc3)c3ccccc3n2)c(C)c1` the Potency was inconclusive [activator, partial curve, poor fit].
With `CCCC(=O)NC(c1ccc(N(C)C)cc1)c1c(O)ccc2ccccc12` (configuration not stated) the “activity, positive = re-replication” value was inactive: -1.03%.
With `COC(=O)C1CCN(C(=O)CSc2nc3ccc(OC)cc3[nH]2)CC1` the “activity, positive = re-replication” value was inactive: -9.54%.
In the case of `COc1cccc(OCCn2cc(C(=O)c3ccco3)c3ccccc32)c1`, the “activity, positive = re-replication” value is reported as inactive: 18.3%.
With `COc1ccc(-c2cc(=O)c3cc(F)ccc3[nH]2)cc1` the Potency was inconclusive [activator, full curve, poor fit].
With `C=CCSc1nc(C)c(Cc2cccc3ccccc23)c(=O)[nH]1` the “activity, positive = re-replication” value was inactive: -10.4%.
In the case of `COc1cc(C(=O)NC(=S)Nc2ccc(Cl)c(C(=O)O)c2)cc(OC)c1OC`, the Potency is reported as inconclusive [activator, single point].
With `CN1CCN(c2ccc(-c3cccc(NC(=O)COc4ccc(Cl)cc4Cl)c3)nn2)CC1` the Potency was inconclusive [activator, partial curve, poor fit].
